# Reference: the supplement of paper PMC10126150
# Values marked as one replicate rest on one cluster of the flow cell; about a third of the high ones do not repeat.
# System: ATP
# Assay: switch fluorescence ratio, 500 uM ATP over buffer (Cy3 cluster intensity, sum of 5 cycles each) (fold (ratio)); higher = stronger signal-on switching upon ATP binding; sequences stand for … in TCGTCGGCAGCGTCAGATGTGTATAAGAGACAGTTTTTTTTTTTTTTTTTTTTTTTTT…TC
# Conditions: aptamer strand: ATP DNA aptamer (quencher-CACCTGGGGGAGTATTGCGGAGGAAGG + anchor), 100 nM annealed; ATP concentration: 500 uM; one replicate
# In short: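 Switching-strand clusters labelled with Cy3 on a modified Illumina MiSeq flow-cell were annealed to 100 nM quencher-labelled ATP aptamer, imaged in selection buffer, and re-imaged after 15 min with 500 uM ATP at 22 °C. This was done over five cycles with NaOH stripping and re-annealing in between. The fluorescence ratio is summed target-cycle over summed buffer-cycle Cy3 intensity per cluster, averaged per switch-domain sequence, excluding clusters outside 100-1000 RFU.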
# 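Note: ATP exposure 15 min at 22 °C before imaging.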
row,Sequence,switch fluorescence ratio
1,ATCCTGGGCT,0.986
2,AAGGGAGC,1.01
3,GAAGATGATA,0.978
4,TGCGGCGGTT,1.01
5,CCCAATGGAC,1.43
6,AATCCGAATG,1.07
7,CCATCCTTGA,0.976
8,GCAAGGGCAC,1.04
9,ATAGTTACTA,0.996
10,CTACTTGAG,1.02
11,GTCTCCATGT,0.958
12,CGGTCTTGTG,0.945
13,GCTCAGTAAG,1.06
14,AATAGTAACG,0.99
15,AAGGGCGGG,1.03
16,TGAAAGGAC,1.03
17,ATGCAAGAGG,1.01
18,AATGGGATCT,0.953
19,CGATGTGGGA,1.02
20,GATGTTCAGA,0.986
21,TCATTTGGA,1
22,AGGATATGC,1.01
23,CGAATTTC,1.02

row,Sequence,switch fluorescence ratio
1,GGAAGTACTA,1.21
2,AATCATGTGT,1.01
3,ACGCAGTTCA,1.02
4,AGCTTGATTG,0.964
5,CTTCATAGGT,1.02
6,GTGATCTACA,0.927
7,TTGCTCTCAA,1.02
8,GAGTTGGCTT,1.01
9,AATACGACTC,1.37
10,ATCTAGAGT,0.94
11,TCACAGGGTC,1.03
12,CCGTCCCAGT,1.86
13,TTCGGACGAC,1.09
14,CCCCTAGGGA,1.09
15,TCATGTTTGT,1.01
16,GGTGATTCGA,0.97
17,ACCTTCAAGG,1.03
18,AAAATGATCA,0.973
19,GCGGCAACTT,1.01
20,CCTGCGAATT,2.37
21,ACTGGACGA,1.23
22,AATTGAGCGT,1.03
23,CTAATGGTCA,0.959

row,Sequence,switch fluorescence ratio
1,ATGGCACCAA,1.07
2,GGTCTCTGTG,0.96
3,GACGGCCTTC,1.02
4,CACGCTGGTC,1.18
5,ATCAAGCAAT,4.06
6,GCACAGGAGT,1.17
7,CATGTGATGA,1.02
8,ACGTTAGATA,1.05
9,TCCCTTCTTG,1
10,TCGAAAACT,0.972
11,ATGGGCATAC,1.84
12,TTCAAAGGCG,1.05
13,TACGTCAGCT,1.12
14,CGCTTGCTAC,2.69
15,TGCGCTTCGT,0.994
16,TCTCGTGCGG,1.02
17,TCTGTGGGTA,0.963
18,TCCGCCTTTA,1.16
19,AGTTAATAG,0.991
20,TCATGGTTAT,1.05
21,GAAGCTGGAG,1.02
22,AATTAAAGAC,1.05
23,GATCTGTTTT,0.982

row,Sequence,switch fluorescence ratio
1,GCATAATGTG,0.976
2,GAAGTTCGA,0.976
3,GGTTGCATGG,1.01
4,GAGGTAATTT,0.963
5,TGTGACGTGT,1.02
6,AACTTCCTTC,2.19
7,GGGCGCTATA,1.32
8,ACTTATTGGC,1.06
9,GGCGACTCTC,1.04
10,GTGGGCTATA,0.985
11,TCTTGCCTTT,0.97
12,AGGGGTTTA,0.991
13,AATTGTCCGG,0.967
14,TTGTTACATT,1.01
15,ACAGCGACCC,1.23
16,GATGGATAG,1.01
17,TTGTTGCGTC,1.07
18,CAGCCGAGAA,1.07
19,TATTCACTAC,1.03
20,TACTCGGTGC,1.03
21,CGGCACCCGC,1.07
22,CCGCCGTTTG,1.38
23,CCTTGATCA,1.02

row,Sequence,switch fluorescence ratio
1,TGAATTTTCT,0.987
2,GTAGGTTGGC,0.991
3,CCAATAAACT,1
4,ACGATGGCAG,1.09
5,ACTGTCGATA,1.06
6,TATGGGCAT,1.06
7,ACTAAGTT,1.04
8,TACGGTCGTC,1.01
9,TTACTTCTGT,1
10,AGGCTTCTC,1.07
11,CTTGGAATGG,1.01
12,CTGCGATAAG,1.21
13,TCTCGATTG,1.01
14,TAAAGCTACA,1.07
15,CGCATGGATA,0.999
16,TATTGAGATC,0.92
17,ATGGGTGACT,0.966
18,CATGATTTTA,0.944
19,TCGCTGGTCA,0.943
20,TGTGATATGG,1
21,AACGTGGAAT,1.01
22,ATCTATTGCA,1.03
23,GTTGGACGGA,0.966

row,Sequence,switch fluorescence ratio
1,CAAAATACTT,1.21
2,CTACTCCGTC,1.4
3,ATTTGATCTT,1.01
4,TACCTATTGA,1.03
5,TTAAAACATG,1.02
6,AATCGTTAG,0.95
7,GGTGTATCCC,0.968
8,AAAGCACTTA,1.06
9,CGCTAATCGG,1.09
10,AGACTGGCGA,0.869
11,GCTGCCTCAT,1.06
12,GTCGGTCGTG,1
13,CGAGTTTGCG,1.02
14,ACTATACATT,1.24
15,AGTGATTTGA,1.02
16,CCTACCTAGT,1.07
17,GCGAACAGTA,1.02
18,GCCTATGGTA,0.985
19,ACGTCACATC,1.53
20,TTTCAGTCTG,0.988
21,GTAGTACCAC,1.02
22,GGTCCTCAGC,1.36
23,AAAGGGGAAG,1.03

row,Sequence,switch fluorescence ratio
1,ATATGTTGGT,1.04
2,GTAGGTACCA,1.02
3,CATTGGACT,0.967
4,TGGTTCGATC,1.02
5,AAACGTTAGT,0.95
6,CACTTCGGCT,0.972
7,GCCTCGCAAA,1.06
8,TCAGTTTCTC,1.06
9,GACGGGAGCG,1.01
10,CGCCGGTTG,1.02
11,TAAGTCTAAC,0.962
12,GTTTAACGTG,0.996
13,ATTTTTCAT,0.976
14,TCTGGTAG,0.987
15,TAATAGTGCA,1.04
16,GTCAGCATGG,1.09
17,GTTCACGAGC,0.99
18,AGTGGGACAA,1.02
19,CTAACGAACT,1.32
20,GGAAGAGG,1.02
